IC50 is the fitted dose that halves viability relative to control wells, and lower means more sensitive; fits outside the tested doses are given as limits. For AUC the same curve is integrated over the 256-fold range of doses and scaled to a fraction; it is 1 without any effect and falls as sensitivity rises. For part of these data: An inferred top dose comes from the curve model; the source does not state it.
Assays:
Assay in all cases: Viability of human cancer cell lines after 72 h of drug (GDSC screen)
[1] = compound: CNCc1ccc(-c2[nH]c3cc(F)cc4c3c2CCNC4=O)cc1 [AG-014699]; conditions: top dose 5 µM; top dose inferred
Procedure: (§1)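 Human cancer cell lines in 384-well plates, medium with 10% serum, drug for 72 h over a 256-fold dose range (nine 2-fold or five 4-fold steps up to the top dose). Adherent lines were fixed and stained with the nucleic acid dye Syto60, suspension lines read with resazurin; signal relative to control wells, capped at 0 and 100%. One two-parameter sigmoid per drug and line, fitted in a mixed model over all curves with the slope shared within a line.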

[2] = compound: N=C(N)NC(=N)NCCc1ccccc1 [Phenformin]; conditions: top dose 4000 µM; top dose inferred
Procedure: as §1

[3] = compound: COc1cc2ncnc(Nc3cc(Br)c(O)c(Br)c3)c2cc1OC [WHI-P97]; conditions: top dose 10.24 µM; top dose inferred
Procedure: as §1

[4] = compound: COc1cc2nccc(Oc3ccc(NC(=O)C4(C(=O)Nc5ccc(F)cc5)CC4)cc3)c2cc1OC [XL-184]; conditions: top dose 5.12 µM; top dose inferred
Procedure: as §1

[5] = compound: CCC1=C[C@@H]2CN(C1)Cc1c([nH]c3ccccc13)[C@@](C(=O)OC)(c1cc3c(cc1OC)N(C)[C@H]1[C@@](O)(C(=O)OC)[C@H](OC(C)=O)[C@]4(CC)C=CCN5CC[C@]31[C@@H]54)C2 [Vinorelbine]; conditions: top dose 0.064 µM; top dose inferred
Procedure: as §1

[6] = compound: O=c1cc(CN2CCOCC2)occ1OCCCCCSc1ccnc2cc(C(F)(F)F)ccc12 [EHT 1864]; conditions: top dose 10 µM; top dose inferred
Procedure: as §1

[7] = compound: C=CC(=O)Nc1cc(NC(=O)c2ccc(C)c(NC(=O)c3ccno3)c2)cc(C(F)(F)F)c1 [QL-XI-92]; conditions: top dose 10.24 µM; top dose inferred
Procedure: as §1

[8] = compound: O=c1cc(N2CCOCC2)oc2c(-c3cccc4c3sc3ccccc34)cccc12 [NU-7441]; conditions: top dose 2 µM; top dose inferred
Procedure: as §1

[9] = compound: COc1cc2ncnc(Nc3ccc(F)c(Cl)c3)c2cc1OCCCN1CCOCC1 [Gefitinib]; conditions: top dose 0.5 µM
Procedure: as §1

Cell Line | AUC [1] | IC50 [1] | AUC [2] | IC50 [2] | AUC [3] | IC50 [3] | AUC [4] | IC50 [4] | AUC [5] | IC50 [5] | AUC [6] | IC50 [6] | AUC [7] | IC50 [7] | AUC [8] | IC50 [8] | AUC [9] | IC50 [9]
HO-1-u-1 (head and neck, adherent) | 0.961 | > 5 µM | 0.838 | 2550 µM | 0.987 | > 10.2 µM | 0.932 | > 5.12 µM | 0.901 | > 0.064 µM | 0.935 | > 10 µM | 0.976 | > 10.2 µM | 0.969 | > 2 µM | 0.843 | 0.334 µM
HOP-62 (lung adenocarcinoma, adherent) | 0.987 | > 5 µM | 0.706 | 952 µM | 0.968 | > 10.2 µM | 0.93 | > 5.12 µM | 0.416 | 0.00236 µM | 0.971 | > 10 µM | 0.983 | > 10.2 µM | 0.945 | > 2 µM | 0.987 | > 0.5 µM
HOS (osteosarcoma, adherent) | 0.95 | > 5 µM | 0.987 | > 4000 µM | 0.989 | > 10.2 µM | 0.985 | > 5.12 µM | 0.525 | 0.00463 µM | 0.982 | > 10 µM | 0.991 | > 10.2 µM | 0.952 | > 2 µM | 0.981 | > 0.5 µM
HT55 (large intestine, adherent) | 0.99 | > 5 µM | 0.448 | 180 µM | 0.99 | > 10.2 µM | 0.988 | > 5.12 µM | 0.979 | > 0.064 µM | 0.99 | > 10 µM | 0.99 | > 10.2 µM | 0.99 | > 2 µM | 0.979 | > 0.5 µM
HT-3 (cervix, adherent) | 0.987 | > 5 µM | 0.364 | 105 µM | 0.971 | > 10.2 µM | 0.966 | > 5.12 µM | 0.82 | 0.0374 µM | 0.975 | > 10 µM | 0.967 | > 10.2 µM | 0.97 | > 2 µM | 0.914 | > 0.5 µM
HT-115 (large intestine, adherent) | 0.991 | > 5 µM | 0.59 | 431 µM | 0.991 | > 10.2 µM | 0.981 | > 5.12 µM | 0.958 | > 0.064 µM | 0.931 | > 10 µM | 0.99 | > 10.2 µM | 0.989 | > 2 µM | 0.963 | > 0.5 µM
HT-1197 (bladder, adherent) | 0.919 | > 5 µM | 0.976 | > 4000 µM | 0.96 | > 10.2 µM | 0.967 | > 5.12 µM | 0.846 | 0.0602 µM | 0.942 | > 10 µM | 0.984 | > 10.2 µM | 0.983 | > 2 µM | 0.972 | > 0.5 µM
Hs633T (fibrosarcoma, adherent) | 0.95 | > 5 µM | 0.968 | > 4000 µM | 0.969 | > 10.2 µM | 0.925 | > 5.12 µM | 0.709 | 0.0137 µM | 0.985 | > 10 µM | 0.984 | > 10.2 µM | 0.916 | > 2 µM | 0.982 | > 0.5 µM
Hs683 (glioma, adherent) | 0.977 | > 5 µM | 0.853 | 3170 µM | 0.978 | > 10.2 µM | 0.948 | > 5.12 µM | 0.509 | 0.00423 µM | 0.976 | > 10 µM | 0.928 | > 10.2 µM | 0.946 | > 2 µM | 0.988 | > 0.5 µM
Hs766T (pancreas, adherent) | 0.984 | > 5 µM | 0.919 | > 4000 µM | 0.984 | > 10.2 µM | 0.984 | > 5.12 µM | 0.921 | > 0.064 µM | 0.923 | > 10 µM | 0.98 | > 10.2 µM | 0.929 | > 2 µM | 0.968 | > 0.5 µM
Hs939-T (melanoma, adherent) | 0.977 | > 5 µM | 0.751 | 1420 µM | 0.972 | > 10.2 µM | 0.977 | > 5.12 µM | 0.777 | 0.0283 µM | 0.975 | > 10 µM | 0.986 | > 10.2 µM | 0.95 | > 2 µM | 0.986 | > 0.5 µM
Hs-578-T (breast, adherent) | 0.978 | > 5 µM | 0.716 | 1070 µM | 0.987 | > 10.2 µM | 0.987 | > 5.12 µM | 0.98 | > 0.064 µM | 0.959 | > 10 µM | 0.987 | > 10.2 µM | 0.949 | > 2 µM | 0.982 | > 0.5 µM
HuCCT1 (biliary tract, adherent) | 0.975 | > 5 µM | 0.85 | 3590 µM | 0.929 | > 10.2 µM | 0.895 | > 5.12 µM | 0.486 | 0.00366 µM | 0.956 | > 10 µM | 0.88 | > 10.2 µM | 0.963 | > 2 µM | 0.974 | > 0.5 µM
HuO9 (osteosarcoma, adherent) | 0.899 | > 5 µM | 0.179 | 23.5 µM | 0.983 | > 10.2 µM | 0.825 | 3.53 µM | 0.581 | 0.00682 µM | 0.939 | > 10 µM | 0.888 | > 10.2 µM | 0.901 | > 2 µM | 0.975 | > 0.5 µM
HuO-3N1 (osteosarcoma, adherent) | 0.865 | > 5 µM | 0.87 | > 4000 µM | 0.983 | > 10.2 µM | 0.952 | > 5.12 µM | 0.692 | 0.0166 µM | 0.946 | > 10 µM | 0.981 | > 10.2 µM | 0.962 | > 2 µM | 0.869 | > 0.5 µM

Source: the supplement of paper PMC4967469
